This passage reports cytotoxicity call results from the antibiotic and cytotoxicity screens of Wong et al. (2023).

The other results are listed elsewhere or left out.

For the assay, the system named is HSkMC (human skeletal muscle cells). Kind of assay: cytotoxicity call (relative viability < 0.9). Particulars: 10 µM.
Regarding `O=C1CO[C@H]2CNC[C@@H]2N1CC1CCCC1`, the cytotoxicity call was “inactive”.

Take `CC1=C[C@H]2[C@]3(O)[C@H](C=C(CO)C[C@]2(O)C1=O)[C@H]1C(C)(C)[C@@]1(O)[C@H](O)[C@@H]3C`: the cytotoxicity call is “inactive”.

Turning to `CN(C)C(=O)[C@]1(Cc2ccccc2CN=[N+]=[N-])N=C(c2ccc(OCCCO)cc2)O[C@@H]1c1ccccc1N=[N+]=[N-]`, the cytotoxicity call was “inactive”.

For the compound `O=C(NC(=O)c1ccccc1Cl)Nc1ccc(OC(F)(F)F)cc1`, the cytotoxicity call is “inactive”.

Regarding `O=C(c1ccno1)N1C[C@@H]2CCN[C@@H]2C1`, the cytotoxicity call was “inactive”.

Consider `CC(=O)O.Cc1cc2c(C(C)C)c(O)c(O)c(C=O)c2c(O)c1-c1c(C)cc2c(C(C)C)c(O)c(O)c(C=O)c2c1O`, for which the cytotoxicity call was “inactive”.

In the case of `COCCCNC(=O)C1[C@@H]2CC[C@H]1CNC2` (some centres undefined), the cytotoxicity call was “inactive”.

Regarding `Cc1ccc(-n2nccn2)c(C(=O)N2CCN(c3nc4cc(Cl)ccc4o3)CCC2C)c1` (centres undefined), the cytotoxicity call is “inactive”.

For the compound `NCCc1ccc(S(=O)(=O)F)cc1`, the cytotoxicity call was “inactive”.

As for `CC(N)(Cc1ccccc1)c1ccccc1` (centres undefined), the cytotoxicity call was “inactive”.

For the compound `CN1CCN(C(=O)[C@H]2C[C@H]3CN(c4ncccn4)C[C@@H]3N2C)CC1`, the cytotoxicity call was “inactive”.

Turning to `CCCC(C)(COC(N)=O)COC(=O)NC(C)C` (centres undefined), the cytotoxicity call was “inactive”.

Take `CO[C@H]1[C@@H](O)C[C@@H](O[C@H]2[C@@H](O)C[C@@H](O[C@H]3[C@@H](O)C[C@@H](O[C@H]4CC[C@@]5(C)[C@@H](CC[C@H]6[C@@H]5C[C@@H](O)[C@@]5(C)[C@H](C7=CC(=O)OC7)CC[C@@]65O)C4)O[C@@H]3C)O[C@@H]2C)O[C@@H]1C`: the cytotoxicity call is “active”.

As for `CC(C)Oc1ccc(CCN)cc1`, the cytotoxicity call is “inactive”.
